Reference: PMC10726135
The other results are listed elsewhere or left out. At the low end of the ranking the order means little. Measured with an extract: partners may take part in the binding.

Target: T1, HNF4alpha2 (COS-7 nuclear extract) (UniProt P41235)
T1 sequence: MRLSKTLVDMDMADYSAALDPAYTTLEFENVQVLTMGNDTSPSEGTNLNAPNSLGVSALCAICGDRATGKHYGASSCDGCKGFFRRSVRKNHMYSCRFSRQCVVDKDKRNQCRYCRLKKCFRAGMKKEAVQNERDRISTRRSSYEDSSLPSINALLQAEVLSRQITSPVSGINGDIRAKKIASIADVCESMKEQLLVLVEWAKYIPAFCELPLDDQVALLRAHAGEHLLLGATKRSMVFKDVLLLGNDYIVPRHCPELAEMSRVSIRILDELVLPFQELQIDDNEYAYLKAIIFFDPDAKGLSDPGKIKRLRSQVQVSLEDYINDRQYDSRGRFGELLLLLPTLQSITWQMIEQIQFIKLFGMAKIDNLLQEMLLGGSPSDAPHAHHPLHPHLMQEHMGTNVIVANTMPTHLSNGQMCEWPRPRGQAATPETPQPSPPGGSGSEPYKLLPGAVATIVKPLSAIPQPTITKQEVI
Experiment: protein-binding microarray
Conditions: COS-7 nuclear extract on double-stranded Agilent 4x180k PBM; binding buffer, salt, pH and temperature not given; high values mean tight binding; double strand, one strand shown; sequences stand for … in …GCCTAGGGAGATTAGAGTATCGGTCGA

**Q.** For GGCTAGGCTGATAAGGAGGGTAACAATGCT, which binding signal (log2 normalized intensity) is on record?
**A.** -1.25

**Q.** Which binding signal (log2 normalized intensity) does the source give for AACCCTAATCCACATGCTATTATTTTCCAT here?
**A.** -0.922

**Q.** Which binding signal (log2 normalized intensity) does the source give for AGAGAAGCACTGCAGTTTAAGTCTGAAGGC here?
**A.** -1.19

**Q.** For CTTTAAGTGTGGGGTGACTGACTTAACCCT, which binding signal (log2 normalized intensity) is on record?
**A.** 1.77

**Q.** With GCCAGGAAGCAATGGCCCTCAGCAAACCTT as the sequence, how does the binding signal (log2 normalized intensity) read?
**A.** -1.24

**Q.** For GGACTTTCAGGAATGCACCCTTTTGACCAC, which binding signal (log2 normalized intensity) is on record?
**A.** 2.88

**Q.** With AGATGAGATGGTCAAAGGTTGATGGTATGT as the sequence, how does the binding signal (log2 normalized intensity) read?
**A.** 3.25

**Q.** Which binding signal (log2 normalized intensity) does the source give for CCAGGGAGTGCAGCTGCAGGTGTGGGGGCG here?
**A.** -0.79

**Q.** Which binding signal (log2 normalized intensity) does the source give for TTGGAACCTGAAAGAGCAACTACTCTCTCT here?
**A.** -1.04

**Q.** How did the binding signal (log2 normalized intensity) turn out when CTTCTCCGCGGCGGGCCCTCGACCTTTGCC was run?
**A.** 5.07

**Q.** How did the binding signal (log2 normalized intensity) turn out when CCGGCACGGTTTCGTGGGGACCCAGGCTTG was run?
**A.** -1.17

**Q.** ATTGACATTTGGGGTCAGATAATTCTTTGC was tested. Which binding signal (log2 normalized intensity) did it give?
**A.** 1.68

**Q.** With AAGGAGCAGATGGCTAGTGACTCAGAGCAT as the sequence, how does the binding signal (log2 normalized intensity) read?
**A.** -0.94

**Q.** For AGTGCTTTTCAATCTTATTTTTACTATGTG, which binding signal (log2 normalized intensity) is on record?
**A.** 2.26

**Q.** For CCCTTGCTTGACCCATTATGGCCACTGTGT, which binding signal (log2 normalized intensity) is on record?
**A.** 0.863

**Q.** With ACCAAGTGAACTGTGACCTGATGACAAAGG as the sequence, how does the binding signal (log2 normalized intensity) read?
**A.** 1.38

**Q.** TGACAACCAGGGCAGGGAAAGGGGGTTTGC was tested. Which binding signal (log2 normalized intensity) did it give?
**A.** -1.14

**Q.** How did the binding signal (log2 normalized intensity) turn out when CCCACCCCCCTGCTCCAGGCCGGCTTGCGT was run?
**A.** 4

**Q.** Which binding signal (log2 normalized intensity) does the source give for AACATTAGTATCACTGTGAAGACGTTAGGG here?
**A.** 0.488

**Q.** For AGTCTTTGCCCCACTGCAAGTTGACATAAC, which binding signal (log2 normalized intensity) is on record?
**A.** 2.31

**Q.** How did the binding signal (log2 normalized intensity) turn out when AGGCAAAGGCCACAGCTCAGATCACAAAAG was run?
**A.** -1.11

**Q.** Which binding signal (log2 normalized intensity) does the source give for CACTATCACCAGGATGGGCCATGACCTTTA here?
**A.** 4.48

**Q.** How did the binding signal (log2 normalized intensity) turn out when ATCTGACCCCTTCTTGACCTGCGTAGCCCA was run?
**A.** 2.16

**Q.** CTCGGATCCTCTGGGCTGGCTTTCATTCCA was tested. Which binding signal (log2 normalized intensity) did it give?
**A.** -1.2

**Q.** With TCCCTCTCACGGTAACAGCCGGAGAGGCAA as the sequence, how does the binding signal (log2 normalized intensity) read?
**A.** -1.11

**Q.** For TTCTCCCAGGCCATACAGATACCCAGGCAT, which binding signal (log2 normalized intensity) is on record?
**A.** -1.04

**Q.** How did the binding signal (log2 normalized intensity) turn out when GCTCCACCCAGTTCGTGCTTCTTGGCCTCT was run?
**A.** 1.63

**Q.** How did the binding signal (log2 normalized intensity) turn out when GGTGCGACGAACGGGTAAATCCGGTTTGGG was run?
**A.** -0.819

**Q.** With TTTTCGAGGAGTCAAAAGGTGTATGTGGAC as the sequence, how does the binding signal (log2 normalized intensity) read?
**A.** 1.74

**Q.** With ATAGGGCTTGAAAAGAAGAAAAAACAGGTG as the sequence, how does the binding signal (log2 normalized intensity) read?
**A.** -0.738

**Q.** Which binding signal (log2 normalized intensity) does the source give for TGAGTGCAAAGTCCCTAGAAGGGATCCAGC here?
**A.** 1.23

**Q.** With GGGCTCCTTTGATCTCCGTGTTTGGAATTG as the sequence, how does the binding signal (log2 normalized intensity) read?
**A.** 2.45

**Q.** For TACCTGGTTAAAAGGACAACCTTCGGCCGG, which binding signal (log2 normalized intensity) is on record?
**A.** 2.52

**Q.** For CAGAACTAGCAAGTGCCAAGATGCTAAGGC, which binding signal (log2 normalized intensity) is on record?
**A.** -1.11

**Q.** With TATCCATTTATCTCAGGTGAGCAGAGGGAG as the sequence, how does the binding signal (log2 normalized intensity) read?
**A.** 2.15

**Q.** How did the binding signal (log2 normalized intensity) turn out when GAAAGGGTCAAAGGTTAAGCCATTGGGCAA was run?
**A.** 5.95

**Q.** How did the binding signal (log2 normalized intensity) turn out when TCTCCCTCTAGAGCAAAAGACAAGTTGGTT was run?
**A.** 0.293

**Q.** For GGTCTAAAAGTAGCTGTTGGAATTTGGTCA, which binding signal (log2 normalized intensity) is on record?
**A.** 4.46

**Q.** How did the binding signal (log2 normalized intensity) turn out when GGAAGCGATGGGCTGGCCCTGAGCCAAGGG was run?
**A.** -1.16

**Q.** How did the binding signal (log2 normalized intensity) turn out when TTGTAAATATAGGATCATGTTGTCTGCAAA was run?
**A.** 1.12

**Q.** With TTTGCTCACTGTAACCTTTGCCCCCCAAGT as the sequence, how does the binding signal (log2 normalized intensity) read?
**A.** 8.54

**Q.** For ATTTAGGGTATTTCCTAAACCAACTATAGA, which binding signal (log2 normalized intensity) is on record?
**A.** -0.852

**Q.** How did the binding signal (log2 normalized intensity) turn out when TCAAACATCACATTCCCCAGGCAATCTTCC was run?
**A.** 0.807

**Q.** How did the binding signal (log2 normalized intensity) turn out when TCATGCCTTAGCTCTAGACATCGACCTTTG was run?
**A.** 5.8

**Q.** With TGTGGGGGCGGCAGGAGCCACAAGCCGGAG as the sequence, how does the binding signal (log2 normalized intensity) read?
**A.** -1.03

**Q.** With GCAATCACGCCTCAAATGAGCTTTTGATGA as the sequence, how does the binding signal (log2 normalized intensity) read?
**A.** -1.15

**Q.** CTGTAAATAAATGTCATTTAAGACGAGTGG was tested. Which binding signal (log2 normalized intensity) did it give?
**A.** 0.65

**Q.** Which binding signal (log2 normalized intensity) does the source give for GCTTTTCTCAAGTTCAGTCTTTATTGGTAC here?
**A.** 1.76

**Q.** How did the binding signal (log2 normalized intensity) turn out when GCTAAGTCCAAAGGTAAAAACTGGCTCTTA was run?
**A.** 2.65

**Q.** Which binding signal (log2 normalized intensity) does the source give for CAGGAAGAACTGGTCCGCCTTCATTCCTAG here?
**A.** -1.09

**Q.** How did the binding signal (log2 normalized intensity) turn out when GGGAGTTAATCACAGGATTTAAAGAATTCC was run?
**A.** -1.11

**Q.** With AACAGGAGCAAATATCGCTTGTCTTACGGA as the sequence, how does the binding signal (log2 normalized intensity) read?
**A.** -1.13

**Q.** Which binding signal (log2 normalized intensity) does the source give for GAGTGCAGGTGGGAGGGGTGGACTTTGGCT here?
**A.** 5.38

**Q.** How did the binding signal (log2 normalized intensity) turn out when ACTGGGGTGGAGATGCCGTCGGCACACACG was run?
**A.** -1.08

**Q.** For TCATTCTCTGTTGCATGGTTGACATACTTC, which binding signal (log2 normalized intensity) is on record?
**A.** 1.38

**Q.** GCTGGTTTGCCATTTGGAGAGAGTTTGGCC was tested. Which binding signal (log2 normalized intensity) did it give?
**A.** 1.78

**Q.** With TAGGAATTCCAAGAAGGCAGACTCAAGATA as the sequence, how does the binding signal (log2 normalized intensity) read?
**A.** -1.08

**Q.** TTCACTTTCTCTTATAGCTCAACCCCCAAA was tested. Which binding signal (log2 normalized intensity) did it give?
**A.** 5.3

**Q.** How did the binding signal (log2 normalized intensity) turn out when AAAAGTAGCTGTTGGAATTTGGTCACAGAA was run?
**A.** 2.34

**Q.** Which binding signal (log2 normalized intensity) does the source give for TTGCCCTTAAGCAGCATGTAGTTTAGTTGG here?
**A.** 2.64

**Q.** Which binding signal (log2 normalized intensity) does the source give for GGAATTGGGAGGACAGATAAGGTCTGCTGA here?
**A.** -1.04

**Q.** ATGGGGGAGCCACTGCAGCTTTCTGAGTAG was tested. Which binding signal (log2 normalized intensity) did it give?
**A.** -1.04

**Q.** How did the binding signal (log2 normalized intensity) turn out when TAGCTTGGTTTTTCTGGGACCAAGGGTCAG was run?
**A.** 4.01

**Q.** Which binding signal (log2 normalized intensity) does the source give for TCTGAAGGGAGGGCCAAGCCCTCCATCCAA here?
**A.** -1.06

**Q.** For TAGAGGAGCCAGAGGGGCCAGGAACGTCAC, which binding signal (log2 normalized intensity) is on record?
**A.** -1.14

**Q.** CTGGGACTTCAAAGCGCAGCGCGGGGCTCA was tested. Which binding signal (log2 normalized intensity) did it give?
**A.** -1.26

**Q.** With CGTAAGGGTCTGACCTGGCTGCTTGCCATG as the sequence, how does the binding signal (log2 normalized intensity) read?
**A.** -0.721

**Q.** GTGTTCCCACAGTGCCCTCTATTGGCTGTT was tested. Which binding signal (log2 normalized intensity) did it give?
**A.** 2.26

**Q.** How did the binding signal (log2 normalized intensity) turn out when CCAGCTAGAAGCAGTGGGACAAAGGTCACA was run?
**A.** 6.15

**Q.** TTCACTCCCCTGACAGCATGTTCGGCTGAG was tested. Which binding signal (log2 normalized intensity) did it give?
**A.** 1.64

**Q.** How did the binding signal (log2 normalized intensity) turn out when TGGTATTTAAGGTCACATGCCTAGGTAAGC was run?
**A.** 0.0916

**Q.** For CCCTGCAATTTGATTTGTATGATCTTGGGT, which binding signal (log2 normalized intensity) is on record?
**A.** 1.89
